Experimental data taken from the BET-seq Pho4 binding data (Le et al. 2018).
The list shows a part of the results. The energies were worked out here from pooled read counts, against the library average; single values are noisy.

target: T1, Pho4 (S. cerevisiae) (UniProt P07270); assay: relative binding free energy (BET-seq); higher = weaker binding; settings: reference: library average
T1 sequence: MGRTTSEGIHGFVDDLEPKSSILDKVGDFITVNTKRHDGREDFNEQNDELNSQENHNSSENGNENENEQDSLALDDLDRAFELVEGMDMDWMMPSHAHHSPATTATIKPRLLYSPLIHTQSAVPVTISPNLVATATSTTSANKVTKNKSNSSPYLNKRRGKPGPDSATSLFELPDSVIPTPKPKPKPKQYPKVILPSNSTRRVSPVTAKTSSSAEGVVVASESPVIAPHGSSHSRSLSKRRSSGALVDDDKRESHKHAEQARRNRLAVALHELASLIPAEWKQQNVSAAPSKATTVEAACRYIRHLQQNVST

Sequence	relative binding free energy [kcal/mol]
GTCGGCACGTGATGGA	0.1
AGATACACGTGGTGAG	-0.07
ATTCACACGTGTGGGG	0.1
GCGAGCACGTGAGTTG	0.32
TGGTGCACGTGGAGGT	-0.02
GGTTGCACGTGCGCAG	0.02
AAGATCACGTGGATTT	0.23
GTTGGCACGTGCGGAG	-0.01
GGGTGCACGTGTACAG	0.07
TCGAGCACGTGGAAAG	0.2
GCCGTCACGTGTGGTG	0.18
GTTATCACGTGCAGGA	0.29
ATAGGCACGTGGCGGT	-0.2
GAATCCACGTGTGGGT	0.16
TAGATCACGTGGAATG	0.19
GTGTACACGTGGTCGA	0.03
GTGGACACGTGATTTA	0.15
GTTGACACGTGGAGAT	0.2
TGTGGCACGTGTCGGC	0.02
CTGTTCACGTGTATTA	0.28
GGGTGCACGTGGCGGC	-0.1
ATGATCACGTGAATTG	0.2
GGGTTCACGTGATAAA	0.35
ATTGTCACGTGCTAAG	0.1
GTTCGCACGTGGGGTT	-0.13
TTATTCACGTGATTGC	0.22

Sequence	relative binding free energy [kcal/mol]
GGTGTCACGTGTGATA	0.28
TACTACACGTGGGGTG	-0.09
TAGGTCACGTGACTGG	0.33
GGGTACACGTGGATAT	0.22
TCTGACACGTGAGTGT	0.17
AGTATCACGTGCAGGG	0.25
CGAGCCACGTGGGGCG	-0.09
TAGGGCACGTGTTCTT	-0.16
AGGAGCACGTGTGGAC	0.13
TCGCGCACGTGTAGGG	-0.12
TATTTCACGTGGGGAA	0.11
TTCTTCACGTGAGGGT	0.21
CTGCTCACGTGGGGTA	0.02
CGTGGCACGTGCAGGT	-0.16
CTACTCACGTGGTGTG	0.15
GAGTTCACGTGGGTAT	0.37
TAATGCACGTGGTATT	-0.16
TGTTTCACGTGCCAGT	0.33
GTGCACACGTGGTCGT	0.04
GACTTCACGTGAGTTG	0.53
AGTCACACGTGGGGGT	0.01
TAATGCACGTGCTTGT	-0.28
ATTTGCACGTGTGCGA	0.1
GTTTTCACGTGAAGAT	0.33
GTTATCACGTGGGATT	0.15
GAACTCACGTGGTGGT	0.17

Sequence	relative binding free energy [kcal/mol]
CAGGTCACGTGCAGGG	0.01
GTACGCACGTGTTGTA	-0.03
GTAGTCACGTGTGCGT	0.18
GGATACACGTGTAGTA	0.2
GTTGCCACGTGGAGTG	0.09
GGGGTCACGTGAAATG	0.47
CTATTCACGTGTTTAG	0.08
AAAAGCACGTGGTGTT	-0.1
AGATGCACGTGGGCTG	-0.32
AGGCTCACGTGGGGCT	0.1
TAACTCACGTGTGGTG	0.18
TGGTCCACGTGTGAGA	0.18
GTTAACACGTGAAGAG	0.25
GATTCCACGTGGATGG	0.22
ATAGGCACGTGGTGGA	-0.16
TATTGCACGTGCTGAT	-0.04
GTATTCACGTGATAGG	0.38
GATAACACGTGGGGCG	-0.04
CGAATCACGTGATGTG	0.26
GGGTACACGTGCGGGA	0.08
TTTGCCACGTGTAAGT	-0.09
ATTCGCACGTGGTGGG	-0.13
AAATGCACGTGATATG	0.06
TGATTCACGTGGTGTA	0.16
ATTTACACGTGTCTTG	0.02
TGTCTCACGTGGTAGT	0.24

Sequence	relative binding free energy [kcal/mol]
TTAGTCACGTGACGGG	0.13
TGCAACACGTGAGTGG	0.16
GTCATCACGTGTTAGG	0.25
AGCGGCACGTGCGTTG	-0.03
CTGGGCACGTGTGTCA	-0.07
CGTGGCACGTGTTAAG	-0.06
CGGTGCACGTGTTTTG	-0.11
GCGGTCACGTGTAGGC	0.15
AATTGCACGTGTTGGC	0.14
CAGTTCACGTGCGGGT	0.16
ATTTTCACGTGCCTGG	0.28
TATGTCACGTGTAACT	0.21
TAGAGCACGTGACGGG	-0.04
ATATACACGTGAGAGT	0.19
CGCGTCACGTGCAGGG	-0.06
CATATCACGTGGAGTG	0.03
ATTTACACGTGGAGAT	0.22
TGCGTCACGTGGGAGC	-0.02
TTGCGCACGTGGAAGG	-0.15
TCGAACACGTGTTAGT	0.12
TATGTCACGTGCATGT	0.08
CGGTTCACGTGTGGTG	0.3
CATGTCACGTGGATTT	0.04
TTTGTCACGTGTCTTG	0.05
CGTTTCACGTGGGCAG	0.18
ACTGTCACGTGGGGGC	-0.19

Sequence	relative binding free energy [kcal/mol]
AGGGGCACGTGAGTTA	0.18
GCAGTCACGTGTGCTG	0.19
TAAGCCACGTGTTGGG	-0.17
GGTGTCACGTGTGGCG	0.22
ATTTACACGTGAGGTA	0.28
TGTGCCACGTGGTTGA	-0.07
GCTTACACGTGTGGTA	0.23
GTGGTCACGTGGCGAA	0.02
GTTGCCACGTGATGTT	0.18
AGCTTCACGTGGAGGT	0.22
TTGAACACGTGGGGAG	-0.05
TTGTACACGTGGTGTA	0.04
TACTTCACGTGGGTAA	0.11
TGGCACACGTGGGGTG	-0.18
TTAACCACGTGATTGT	0.05
ACAGGCACGTGAGAGG	0.11
GCTTCCACGTGGTGGG	-0.01
GGGTTCACGTGGTCGC	0.1
AGTTGCACGTGGGGGG	-0.08
TTCTGCACGTGGGTCG	-0.15
GTGATCACGTGGGGGC	-0.06
CGCGTCACGTGTATTG	0.03
ACGTTCACGTGAGTTG	0.28
TCGGTCACGTGTTGTC	0.12
TTTATCACGTGCTATG	0
TGTATCACGTGCTGGG	0.02

Sequence	relative binding free energy [kcal/mol]
TTGTTCACGTGAGGCT	0.34
ATAGTCACGTGGGTTG	-0.06
TAGTGCACGTGATCAG	0.04
AGGTACACGTGGAGCT	0.06
GGGGGCACGTGACGGA	0.03
GTGTGCACGTGCGTAA	-0.14
CGGGGCACGTGAGGAC	0.08
GGGGGCACGTGAAATA	0.36
TTGGGCACGTGGCAGC	-0.17
TTGGCCACGTGACGTG	0.05
CAGCGCACGTGAGGTG	0.01
ATGCGCACGTGGGGCG	-0.29
GGCTCCACGTGGTTTT	0.13
AGTTGCACGTGTCGTT	0.03
TCATGCACGTGAATGG	0.19
TTTGACACGTGGCAGT	-0.08
AGTGGCACGTGGGCCT	-0.3
TGGTGCACGTGCTGAA	-0.14
GTCTACACGTGCGGGT	0.22
TAGTTCACGTGTGGTA	0.24
TGGTTCACGTGAGACG	0.48
GTTTTCACGTGACTGG	0.45
AGGGCCACGTGGAAGG	0.1
TTCTTCACGTGCAGTT	0.27
AGTGGCACGTGTGTGC	-0.13
GATCTCACGTGGTGGA	0.27

Sequence	relative binding free energy [kcal/mol]
CGTATCACGTGTATTT	0.17
TTGGACACGTGGGAGA	-0.03
TGGTACACGTGAAACG	0.43
TTGGCCACGTGGCGCG	-0.09
AAGGGCACGTGGGGCT	-0.2
GAGTTCACGTGTACGG	0.32
GGGAGCACGTGATGGA	0.07
GAATGCACGTGATTGG	0.26
TATGGCACGTGGAGTG	-0.05
GCGTGCACGTGCAGGT	0.1
TAGGGCACGTGGGGAA	-0.31
TGGCTCACGTGCGGTA	0.08
AATAGCACGTGAGCGT	0.24
GGCCACACGTGCGGGG	0.04
TTCGTCACGTGATTTG	0.17
TTGATCACGTGGGATT	0.06
GATAGCACGTGTATGG	-0.04
ATTTACACGTGTCGGC	0.29
ATGTACACGTGGGCTT	0
GTAGACACGTGGAGGA	-0.08
TCTCTCACGTGGTAGG	0.27
TAAATCACGTGAGTTT	0.31
ATATTCACGTGGTGTA	0.12
TTCAACACGTGGTGGA	0.08
AGAGGCACGTGAATGT	0.06
GGCGGCACGTGAGGAG	0.14

Sequence	relative binding free energy [kcal/mol]
TAGACCACGTGGGTGT	-0.33
GTTTTCACGTGAGGAC	0.46
TTTAGCACGTGGATTA	0.12
ATGAGCACGTGGTGAT	-0.03
AGTGACACGTGGGTGC	-0.13
TATAACACGTGTGTTA	-0.07
TAGGGCACGTGCGCGA	-0.29
GGAACCACGTGTGGTG	-0.02
TATCTCACGTGTATGT	0.09
TATGCCACGTGGATGT	-0.1
GGGGTCACGTGTGCTC	-0.01
TTACACACGTGGTTAT	-0.04
CGTGGCACGTGCTGGT	-0.19
GGCTACACGTGTAGTG	0
TTTTCCACGTGTTAGA	0.24
AATGTCACGTGCGTTA	-0.05
TGCGGCACGTGTCGTC	0.12
GTACGCACGTGATGTA	0.13
GAGGTCACGTGGAGCG	0.3
TTGACCACGTGTGGTT	-0.08
TTCGTCACGTGTGCGT	0.04
CATGGCACGTGAAGTG	0.19
AATATCACGTGTTTGC	0.18
AGATCCACGTGCGGGT	0.06
TTTTGCACGTGAAAAT	0.26
GGAGTCACGTGGCAGA	0.13

Sequence	relative binding free energy [kcal/mol]
TGGTGCACGTGAGCTA	0.12
GATTTCACGTGTGCTG	0.15
AGCCGCACGTGGGAGT	-0.06
TACGTCACGTGGGGAG	0.02
GTTGCCACGTGGGGCG	-0.14
GGCGTCACGTGGGTGG	0.03
TTGCTCACGTGGGTCG	0.14
ATGATCACGTGGTGTG	0.12
ATTGGCACGTGAAGAA	0.16
ATAAGCACGTGGTGGT	-0.22
TAGTCCACGTGATGTG	-0.01
GTTTACACGTGTATAG	0.06
GTTAGCACGTGGTCGC	-0.12
GTTATCACGTGTTTAT	0.19
TGAAGCACGTGTTTGT	-0.07
TGGTTCACGTGTTCAT	0.32
ATAGTCACGTGGGCTT	0.04
GAGGTCACGTGAGTTT	0.59
CTTTTCACGTGGTTCG	0.1
GAAAGCACGTGGTTAA	0.03
GTATACACGTGGGGCA	-0.18
GTTGACACGTGGTCAG	0.05
